# Source: PubChem BioAssay AID1460 (National Center for Advancing Translational Sciences (NCATS), 2008)
# In all, about 270,000 compounds went through this assay and about 5,800 (2.1%) were called active. Inconclusive means that the source gave no clear call. Such entries were picked first, then a sample of the others. Calls come from the whole dose curve; as a rule, active = well fitted inhibition curve with a large enough effect; inconclusive = small, poorly fitted or top-dose-only effect; inactive = flat fitted curve, though single readings scatter. Where the call is inconclusive, the potency comes from a doubtful curve fit.
# Target: Microtubule-associated protein tau (Homo sapiens) (UniProt P10636)
# Sequence of UniProt P10636 (P10636 whole entry, looked up): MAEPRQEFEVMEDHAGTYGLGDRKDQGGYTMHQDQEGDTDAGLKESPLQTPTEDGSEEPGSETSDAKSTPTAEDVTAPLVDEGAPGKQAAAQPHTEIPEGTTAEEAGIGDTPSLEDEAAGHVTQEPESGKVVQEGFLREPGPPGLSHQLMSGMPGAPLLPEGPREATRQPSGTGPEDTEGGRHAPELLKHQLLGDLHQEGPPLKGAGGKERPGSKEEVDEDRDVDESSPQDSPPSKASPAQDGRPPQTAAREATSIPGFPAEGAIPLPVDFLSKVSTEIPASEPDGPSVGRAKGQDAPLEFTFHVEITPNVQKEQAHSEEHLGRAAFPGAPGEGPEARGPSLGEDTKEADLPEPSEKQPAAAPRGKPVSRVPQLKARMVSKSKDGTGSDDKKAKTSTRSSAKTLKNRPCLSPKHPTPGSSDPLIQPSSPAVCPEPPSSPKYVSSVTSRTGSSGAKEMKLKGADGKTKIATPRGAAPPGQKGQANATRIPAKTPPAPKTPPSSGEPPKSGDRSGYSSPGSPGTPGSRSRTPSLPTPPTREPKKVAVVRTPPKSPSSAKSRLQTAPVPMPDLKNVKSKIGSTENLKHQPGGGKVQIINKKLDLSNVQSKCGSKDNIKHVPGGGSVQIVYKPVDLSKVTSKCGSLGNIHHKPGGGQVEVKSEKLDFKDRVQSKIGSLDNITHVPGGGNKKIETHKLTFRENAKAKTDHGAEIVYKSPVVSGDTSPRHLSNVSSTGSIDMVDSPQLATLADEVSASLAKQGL
# Assay: qHTS for Inhibitors of Tau Fibril Formation, Thioflavin T Binding; note: nearly all actives have a fitted effect of over 55% in size
# Conditions: recombinant tau K18 P301L, heparin-induced fibrillization, ThT fluorescence; series mostly up to 57.4 µM
# In short: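 ThT emission at 510 nm, taken 1 hr after adding 30 uM dye, quantifies aggregates formed when 20 uM heparin acts on human tau K18 P301L for 6 hr at 37 C.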
# Potency is the fitted concentration of half-maximal effect; tags give direction and shape of the fitted curve.
row,Compound,Potency
1,N#C/C(=C\c1c(Oc2ccc(Br)cc2)nc2ccccn2c1=O)c1nc2ccccc2s1,"inconclusive: 28.2 µM [inhibitor, single point]"
2,COc1cccc(C2=NOC(C(=O)N3CCN(c4ccccc4)CC3)C2)c1OC (stereo not drawn),"inconclusive: 15.8 µM [inhibitor, partial curve]"
3,Cn1c(SCC(=O)Nc2ccc3nc(SCC(=O)N4CCCC4)sc3c2)nnc1-c1ccccc1,"inconclusive: 8.91 µM [inhibitor, partial curve]"
4,O=C(CSc1nc(=O)n(Cc2cccnc2)c2c1CCC2)Nc1ccc(F)cc1F,"inconclusive: 28.2 µM [inhibitor, single point]"
5,Oc1ccc(NCc2ccc(OCc3ccccc3Cl)cc2)cc1,active: 14.1 µM
6,CSc1ccccc1NC(=O)Cn1nc([N+](=O)[O-])c(Cl)c1C,"inconclusive: 0.316 µM [inhibitor, full curve, poor fit]"
7,COc1ccc(-c2nc3sc(CCNC(=O)c4ccccc4C)c(C)n3n2)cc1,"inconclusive: 17.8 µM [inhibitor, partial curve]"
8,Cc1ccccc1N1C(S)=C(C#N)C(=O)NC12CCCCC2,inactive
9,Cc1ccccc1NC(=O)CN(c1ccc(Cl)cc1Cl)S(=O)(=O)c1ccccc1,inactive
10,COc1cccc(NC(=O)c2ccc3c(SCC(=O)O)c4c(nc3c2)CCCC4)c1,inactive
11,COCCOC(=O)c1cc(C(=O)c2cc(Cl)ccc2O)coc1=N,inactive
12,C[C@@]12C(=O)OC(=O)[C@@]1(C)[C@@H]1CC[C@@H]2O1,"inconclusive: 25.1 µM [inhibitor, partial curve, poor fit]"
13,O=C(NNc1c2ccccc2nc2ccccc12)c1ccc(O)cc1,"inconclusive: 0.631 µM [inhibitor, full curve]"
14,CCCCCCCCCC(=O)N/N=C/c1ccc(C)s1,"inconclusive: 14.1 µM [inhibitor, partial curve]"
15,O=C(CSc1nc(O)c(Cc2ccccc2)c(=O)[nH]1)c1ccccc1,"inconclusive: 22.4 µM [inhibitor, single point]"
16,CCOc1ccc(C2C(C(=O)Nc3ccc(Cl)cc3)=C(C)Nc3nc(C(F)(F)F)nn32)cc1 (stereo not drawn),"inconclusive: 44.7 µM [activator, single point]"
17,CSc1ccc(N/N=C(/C#N)S(=O)(=O)C(C)(C)C)cc1,"inconclusive: 44.7 µM [inhibitor, single point]"
18,COc1ccc(OC)c(S(=O)(=O)N2CC=C(c3c(C)n(CC(=O)N4CCCC4)c4ccccc34)CC2)c1,"inconclusive: 28.2 µM [inhibitor, single point]"
